{"source": "the supplement of paper PMC8728848", "test_in_all_cases": "glycan array binding signal (z-score within array); higher = stronger binding", "details_in_all_cases": "glycan notation: IUPAC condensed, linker removed", "key": {"Gal3S6S(b1-4)GlcNAc": {"target": "Gal3S6S(b1-4)GlcNAc", "summary_of_the_method": "(§1)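 Glycan array data came from 3228 arrays in the Consortium for Functional Glycomics database, and only arrays with an available protein sequence were kept. Glycan names were put into IUPAC-condensed notation, and columns mapping to the same glycan were averaged. The binding signal is a within-array Z-score, averaged across arrays of one protein sequence run at different concentrations or buffers and across linkers. A negative Z-score can be read as non-binding.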"}, "Gal3S6S(b1-4)GlcNAc6S": {"target": "Gal3S6S(b1-4)GlcNAc6S", "summary_of_the_method": "as §1"}, "Gal4S(b1-4)GlcNAc": {"target": "Gal4S(b1-4)GlcNAc", "summary_of_the_method": "as §1"}, "Gal4S6S(b1-4)GlcNAc": {"target": "Gal4S6S(b1-4)GlcNAc", "summary_of_the_method": "as §1"}, "Gal6P(b1-4)GlcNAc": {"target": "Gal6P(b1-4)GlcNAc", "summary_of_the_method": "as §1"}, "Gal6S(b1-3)GlcNAc": {"target": "Gal6S(b1-3)GlcNAc", "summary_of_the_method": "as §1"}, "Gal6S(b1-3)GlcNAc6S": {"target": "Gal6S(b1-3)GlcNAc6S", "summary_of_the_method": "as §1"}, "Gal6S(b1-4)Glc": {"target": "Gal6S(b1-4)Glc", "summary_of_the_method": "as §1"}, "Gal6S(b1-4)Glc6S": {"target": "Gal6S(b1-4)Glc6S", "summary_of_the_method": "as §1"}, "Gal6S(b1-4)GlcNAc": {"target": "Gal6S(b1-4)GlcNAc", "summary_of_the_method": "as §1"}, "Gal6S(b1-4)GlcNAc6S": {"target": "Gal6S(b1-4)GlcNAc6S", "summary_of_the_method": "as §1"}, "GalNAc(a1-3)Gal": {"target": "GalNAc(a1-3)Gal", "summary_of_the_method": "as §1"}, "GalNAc(a1-3)GalNAc": {"target": "GalNAc(a1-3)GalNAc", "summary_of_the_method": "as §1"}, "[1]": {"target": "GalNAc(a1-3)GalNAc(a1-3)Gal(a1-4)Gal(b1-4)GlcNAc", "summary_of_the_method": "as §1"}, "[2]": {"target": "GalNAc(a1-3)GalNAc(b1-3)Gal(a1-4)Gal(b1-4)Glc", "summary_of_the_method": "as §1"}, "[3]": {"target": "GalNAc(a1-3)GalNAc(b1-3)Gal(a1-4)Gal(b1-4)GlcNAc", "summary_of_the_method": "as §1"}, "GalNAc(b1-3)Gal": {"target": "GalNAc(b1-3)Gal", "summary_of_the_method": "as §1"}, "[4]": {"target": "GalNAc(b1-3)Gal(a1-4)Gal(b1-4)GlcNAc", "summary_of_the_method": "as §1"}, "[5]": {"target": "GalNAc(b1-3)Gal(a1-4)Gal(b1-4)GlcNAc(b1-3)Gal(b1-4)Glc", "summary_of_the_method": "as §1"}, "[6]": {"target": "GalNAc(b1-3)Gal(a1-6)Gal(b1-4)Glc", "summary_of_the_method": "as §1"}, "GalNAc(b1-3)GalNAc": {"target": "GalNAc(b1-3)GalNAc", "summary_of_the_method": "as §1"}, "GalNAc(b1-3)GlcNAc": {"target": "GalNAc(b1-3)GlcNAc", "summary_of_the_method": "as §1"}, "GalNAc(b1-4)Gal(b1-4)Glc": {"target": "GalNAc(b1-4)Gal(b1-4)Glc", "summary_of_the_method": "as §1"}, "GalNAc(b1-4)GlcNAc": {"target": "GalNAc(b1-4)GlcNAc", "summary_of_the_method": "as §1"}, "[7]": {"target": "GalNAc(b1-4)GlcNAc(b1-2)Man", "summary_of_the_method": "as §1"}, "[8]": {"target": "GalNAc(b1-4)GlcNAc(b1-2)Man(a1-3)[GalNAc(b1-4)GlcNAc(b1-2)Man(a1-6)]Man(b1-4)GlcNAc(b1-4)GlcNAc", "summary_of_the_method": "as §1"}, "[9]": {"target": "GalNAc(b1-4)GlcNAc(b1-3)GalNAc(b1-4)GlcNAc", "summary_of_the_method": "as §1"}, "GalNAc(b1-4)GlcNAc6S": {"target": "GalNAc(b1-4)GlcNAc6S", "summary_of_the_method": "as §1"}, "GalNAc(b1-6)GalNAc": {"target": "GalNAc(b1-6)GalNAc", "summary_of_the_method": "as §1"}, "GalNAc3S(b1-4)GlcNAc": {"target": "GalNAc3S(b1-4)GlcNAc", "summary_of_the_method": "as §1"}, "GalNAc3S(b1-4)GlcNAc3S": {"target": "GalNAc3S(b1-4)GlcNAc3S", "summary_of_the_method": "as §1"}, "[10]": {"target": "GalNAc3S(b1-4)[Fuc(a1-3)]GlcNAc", "summary_of_the_method": "as §1"}, "GalNAc4S6S(b1-4)GlcNAc": {"target": "GalNAc4S6S(b1-4)GlcNAc", "summary_of_the_method": "as §1"}, "GalNAc6S(b1-4)GlcNAc": {"target": "GalNAc6S(b1-4)GlcNAc", "summary_of_the_method": "as §1"}, "Glc(a1-4)Glc": {"target": "Glc(a1-4)Glc", "summary_of_the_method": "as §1"}, "[11]": {"target": "Glc(a1-4)Glc(a1-4)Glc(a1-4)Glc", "summary_of_the_method": "as §1"}, "Glc(a1-6)Glc(a1-6)Glc": {"target": "Glc(a1-6)Glc(a1-6)Glc", "summary_of_the_method": "as §1"}, "[12]": {"target": "Glc(a1-6)Glc(a1-6)Glc(a1-6)Glc", "summary_of_the_method": "as §1"}, "Glc(b1-4)Glc": {"target": "Glc(b1-4)Glc", "summary_of_the_method": "as §1"}, "Glc(b1-6)Glc": {"target": "Glc(b1-6)Glc", "summary_of_the_method": "as §1"}, "GlcA(b1-3)Gal": {"target": "GlcA(b1-3)Gal", "summary_of_the_method": "as §1"}, "GlcA(b1-3)GlcNAc": {"target": "GlcA(b1-3)GlcNAc", "summary_of_the_method": "as §1"}, "GlcA(b1-6)Gal": {"target": "GlcA(b1-6)Gal", "summary_of_the_method": "as §1"}, "[13]": {"target": "GlcA3S(b1-3)Gal(b1-4)GlcNAc(b1-2)Man", "summary_of_the_method": "as §1"}, "[14]": {"target": "GlcA3S(b1-3)Gal(b1-4)GlcNAc(b1-3)Gal(b1-4)Glc", "summary_of_the_method": "as §1"}}, "note": "This is one part of the list."}
{"binder": "AMA (Arum maculatun) (protein) MAKLLLLLLLPAIVGLAVPRSAAAVGSNYMLSGETLNTDGRLTNGELTLIMQVDCNLVLYHGGWQSNTANNGRDCKLTLTDFGELVIKSGTGSTVWSSGSKQSMKGNYAAVVHPEGRLVIYGPSVFKINPSGAGLNGLPLRNIPLTNNMLFSGQVLYGDGTLSARNHKLVMQGDCNMVLYGGKYGWQSNTHGNGKYCFAMLTHKGELVIRDDDFKSVWSSKSSSKQGDYVFILQDDSLAIIYGPAVFSTGSKKMISMVTN", "values": [{"measurement": "glycan array binding signal (z-score)", "setting": "Gal3S6S(b1-4)GlcNAc", "value": -0.213}, {"measurement": "glycan array binding signal (z-score)", "setting": "Gal3S6S(b1-4)GlcNAc6S", "value": -0.216}, {"measurement": "glycan array binding signal (z-score)", "setting": "Gal4S(b1-4)GlcNAc", "value": -0.214}, {"measurement": "glycan array binding signal (z-score)", "setting": "Gal4S6S(b1-4)GlcNAc", "value": -0.219}, {"measurement": "glycan array binding signal (z-score)", "setting": "Gal6P(b1-4)GlcNAc", "value": -0.231}, {"measurement": "glycan array binding signal (z-score)", "setting": "Gal6S(b1-3)GlcNAc", "value": -0.217}, {"measurement": "glycan array binding signal (z-score)", "setting": "Gal6S(b1-3)GlcNAc6S", "value": -0.216}, {"measurement": "glycan array binding signal (z-score)", "setting": "Gal6S(b1-4)Glc", "value": -0.215}, {"measurement": "glycan array binding signal (z-score)", "setting": "Gal6S(b1-4)Glc6S", "value": -0.217}, {"measurement": "glycan array binding signal (z-score)", "setting": "Gal6S(b1-4)GlcNAc", "value": -0.215}, {"measurement": "glycan array binding signal (z-score)", "setting": "Gal6S(b1-4)GlcNAc6S", "value": -0.212}, {"measurement": "glycan array binding signal (z-score)", "setting": "GalNAc(a1-3)Gal", "value": -0.103}, {"measurement": "glycan array binding signal (z-score)", "setting": "GalNAc(a1-3)GalNAc", "value": -0.209}, {"measurement": "glycan array binding signal (z-score)", "setting": "[1]", "value": -0.225}, {"measurement": "glycan array binding signal (z-score)", "setting": "[2]", "value": -0.203}, {"measurement": "glycan array binding signal (z-score)", "setting": "[3]", "value": -0.187}, {"measurement": "glycan array binding signal (z-score)", "setting": "GalNAc(b1-3)Gal", "value": -0.217}, {"measurement": "glycan array binding signal (z-score)", "setting": "[4]", "value": -0.206}, {"measurement": "glycan array binding signal (z-score)", "setting": "[5]", "value": -0.214}, {"measurement": "glycan array binding signal (z-score)", "setting": "[6]", "value": -0.217}, {"measurement": "glycan array binding signal (z-score)", "setting": "GalNAc(b1-3)GalNAc", "value": -0.214}, {"measurement": "glycan array binding signal (z-score)", "setting": "GalNAc(b1-3)GlcNAc", "value": -0.219}, {"measurement": "glycan array binding signal (z-score)", "setting": "GalNAc(b1-4)Gal(b1-4)Glc", "value": -0.203}, {"measurement": "glycan array binding signal (z-score)", "setting": "GalNAc(b1-4)GlcNAc", "value": -0.207}, {"measurement": "glycan array binding signal (z-score)", "setting": "[7]", "value": -0.217}, {"measurement": "glycan array binding signal (z-score)", "setting": "[8]", "value": 0.184}, {"measurement": "glycan array binding signal (z-score)", "setting": "[9]", "value": -0.22}, {"measurement": "glycan array binding signal (z-score)", "setting": "GalNAc(b1-4)GlcNAc6S", "value": -0.222}, {"measurement": "glycan array binding signal (z-score)", "setting": "GalNAc(b1-6)GalNAc", "value": -0.223}, {"measurement": "glycan array binding signal (z-score)", "setting": "GalNAc3S(b1-4)GlcNAc", "value": -0.22}, {"measurement": "glycan array binding signal (z-score)", "setting": "GalNAc3S(b1-4)GlcNAc3S", "value": -0.217}, {"measurement": "glycan array binding signal (z-score)", "setting": "[10]", "value": -0.216}, {"measurement": "glycan array binding signal (z-score)", "setting": "GalNAc4S6S(b1-4)GlcNAc", "value": -0.215}, {"measurement": "glycan array binding signal (z-score)", "setting": "GalNAc6S(b1-4)GlcNAc", "value": -0.222}, {"measurement": "glycan array binding signal (z-score)", "setting": "Glc(a1-4)Glc", "value": -0.218}, {"measurement": "glycan array binding signal (z-score)", "setting": "[11]", "value": -0.21}, {"measurement": "glycan array binding signal (z-score)", "setting": "Glc(a1-6)Glc(a1-6)Glc", "value": -0.22}, {"measurement": "glycan array binding signal (z-score)", "setting": "[12]", "value": -0.208}, {"measurement": "glycan array binding signal (z-score)", "setting": "Glc(b1-4)Glc", "value": -0.212}, {"measurement": "glycan array binding signal (z-score)", "setting": "Glc(b1-6)Glc", "value": -0.203}, {"measurement": "glycan array binding signal (z-score)", "setting": "GlcA(b1-3)Gal", "value": -0.204}, {"measurement": "glycan array binding signal (z-score)", "setting": "GlcA(b1-3)GlcNAc", "value": -0.214}, {"measurement": "glycan array binding signal (z-score)", "setting": "GlcA(b1-6)Gal", "value": -0.211}, {"measurement": "glycan array binding signal (z-score)", "setting": "[13]", "value": -0.218}, {"measurement": "glycan array binding signal (z-score)", "setting": "[14]", "value": -0.212}]}
